# In the supplement of paper PMC11417369:
# ± gives the standard deviation of the averaged measurements. The list shows a part of the results.
# Tested on: PfAP2-EXP AP2 domain (GST-tagged)
# Assay: gcPBM binding intensity (ln(normalized median fluorescence intensity)); higher = stronger DNA binding
# In short: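 Binding of GST-tagged P. falciparum DNA-binding domains, expressed in E. coli and used at about 25 μg on average, was carried out for 1 h in 1× PBS containing 1% milk, 0.2 mg/ml BSA, 0.5% salmon testes DNA and 0.03% Triton X-100. The target was an Agilent 4 × 180k array of primer-extended double-stranded 36-bp intergenic genomic probes plus negative controls, read with Alexa488 anti-GST antibody at 488 nm. Binding intensity is the highest Masliner-normalised natural-log median intensity across replicate spots of either probe orientation.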
row,Sequence,gcPBM binding intensity (ln)
1,AATATAAAATAATGCACACATAAACAAAAAATCAAA [CACACA_site1371],8.79 ± 0.36
2,TTTCCAAATTGTTGACGGACACTCACGAATAGTTAT [XGTACX_site5720],8.53 ± 0.42
3,ACATGAAGATATTTTTGTCCGTACAAATTCATATGA [XGTACX_site1837],8.47 ± 0.33
4,CATATGTATATGACTACACACAAGGGTGTACATATA [CACACA_site1164],8.48 ± 0.18
5,AGTATATCAAAATACATACACACATTTGTATATACA [CACACA_site2697],8.46 ± 0.41
6,GTCCTCATCCACTATGCACACAAAAAAGAAATACAC [CACACA_site9131],9.04 ± 0.29
7,TTTTTTTTTTTTTTTTGTACACAAATTTATTGTCTA [XGTACX_site2680],8.32 ± 0.35
8,TACGTTATGTTGAATAGTACAATTTGGTGAACAGGT [XGTACX_site1729],8.97 ± 0.39
9,ATATATATAATATGTAGTACTTTCCTCTCAAATCAT [XGTACX_site7766],8.66 ± 0.057
10,ATCAAAAATATAAAAAATATAAACAATTTATTATCA [CACACA_negctrl_site768],8.12 ± 0.41
11,TTTACATCCAAAAACTGTACACTTATTTTATAATTC [XGTACX_site5332],8.6 ± 0.36
12,AATAAGTAACAAAATACACACATATATATAATTATA [CACACA_site1837],8.63 ± 0.35
13,GAATCATATTTAAACACACATACATATATATATATA [CACACA_site3352],10 ± 0.34
14,TTTTTACTATAATTAAAATTAACAAAAGAAAATGAT [GTGCAC_negctrl_site52],8.4 ± 0.35
15,AAAAAATACAAGAAATGTACTCAAGCATATATTAAT [XGTACX_site3325],8.7 ± 0.27
16,TTCATTATTATTAACATACACACGTGTTATATACAC [CACACA_site4112],8.66 ± 0.41
17,TTCATTTTTTAAGCATCACACACGAAAGAACAAAGT [CACACA_site1122],9 ± 0.52
18,TTTAATAATATAATGTGTACTTAAAAATTTATATAT [XGTACX_site5821],8.29 ± 0.21
19,TCATAAATTAATAATACATGCATAATATTAAAATGT [TGCATGCA_site5],8.83 ± 0.3

row,Sequence,gcPBM binding intensity (ln)
1,AAAAATATATAAGAGAGTACATAAAATAAATTAATT [XGTACX_site1534],8.61 ± 0.41
2,AAATAATATATGAATGCACACAGTAAAAATTAAAGA [CACACA_site2252],8.94 ± 0.35
3,AAAATTTCAATAAATACACACATATATATATATATT [CACACA_site1685],8.29 ± 0.3
4,AAGAATACACCACGCACACACACTTGAGAAAAAATA [CACACA_site3828],8.61 ± 0.52
5,ATATTTTTATGATGTATCCAAGAAATGGAACTATAT [CACACA_negctrl_site1268],8.21 ± 0.38
6,AAGATTAATATTTTATGTACATATGTAATATATATG [XGTACX_site4367],8.37 ± 0.28
7,ATTTTAGATATCCTGCGTACACAAATTGCTTTATTT [XGTACX_site7149],9.13 ± 0.36
8,TTCTTTGTGGTATAGATACACACTATATTAATATGA [CACACA_site2150],8.85 ± 0.46
9,ATATATACCTAAGACACACACATATAGATTTATATA [CACACA_site6498],8.4 ± 0.4
10,TGTATAAGTGCCGTTATACACACGTTATATAAATAT [CACACA_site438],8.5 ± 0.41
11,TATCTTATTTTAAAAGTGCATGGAAAGGGGTTTTTG,8.49 ± 0.38
12,TATATATACATATACACACACACACCCATATATATA [CACACA_site2246],8.84 ± 0.39
13,ATAAATTTATATACTTGTACATATATATATTACATA [XGTACX_site6697],8.53 ± 0.33
14,TTTTAGCACTTATTATAAGATATCAAAAAGATGGGT [XGTACX_negctrl_site325],8.55 ± 0.36
15,ACTATCATTTTTTTAACACACAAAAAAAATAAAATA [CACACA_site3519],8.43 ± 0.63
16,TTTGAAATAAAAAGGTGTACACTCGATTAATAAATA [XGTACX_site6943],8.7 ± 0.3
17,TTATAAAAATAATATCGTACAAATGATAAAGATTAA [XGTACX_site4893],8.52 ± 0.39
18,ACATATATATATATATATAATATTTTATATTTATTA [CACACA_negctrl_site713],8.24 ± 0.12
19,TGAATTCGTCAAAAGCGTACATATAATATCTTCTTG [XGTACX_site8842],8.69 ± 0.42

row,Sequence,gcPBM binding intensity (ln)
1,AAAATAATGTTTATATGTACATATATATATATATAT [XGTACX_site8815],9.96 ± 0.38
2,CCATTTACCCTTGCCATGCACACTTTTTTATAGAAA [CACACA_site3505],9.21 ± 0.29
3,ATATTTTTTTATAAATGTACAAAAATAATATTGCAT [XGTACX_site7399],8.39 ± 0.43
4,TTTTTATTTAATATTTTAAAAAAAAATCATTTTTAA [XGTACX_negctrl_site207],7.83 ± 0.47
5,TATATAGTAATATATACACACACTTGTCTTGTAAAA [CACACA_site990],8.44 ± 0.42
6,AAAAAATTGACTAATGCACACAATTACATATATATA [CACACA_site1689],8.62 ± 0.14
7,ATTATAAATACACGCACACACACTTATATATATATA [CACACA_site5776],9.99 ± 0.15
8,AATTGTTCTATGATTTGTACACACTTTTTTTTAAAA [XGTACX_site5984],8.88 ± 0.43
9,CAATTTTTCTATCATTGTACTTTTATATAATAGTGT [XGTACX_site1810],8.67 ± 0.26
10,CATTATAAAAAATAAAAAAGAAATAATTGTATATGC [CACACA_negctrl_site478],8.64 ± 0.49
11,ATTTTTTACGTATAGTACAAAGTTTTATGATACATA [CACACA_negctrl_site965],8.45 ± 0.31
12,ATGAAATATATTATATGTACATATTTATTTTTTATA [XGTACX_site7319],8.23 ± 0.18
13,AAATAGTAAATAAGGGGTACAAAAAAAAAAAAAAAA [XGTACX_site8362],8.24 ± 0.57
14,AAATGCTAAAAATAGAGTACAGATAACGAAAAGTGT [XGTACX_site8830],9.29 ± 0.59
15,AAGGAGAAATAAATATTAAAAAATTTATATATATAT [CACACA_negctrl_site1801],9.72 ± 0.13
16,TTCTTTTTTAACAACAAAAAAAAAAAAAAAAAAAAA [TGCATGCA_negctrl_site87],7.8 ± 0.37
17,TAATATTGCAAATATAAAAAAAAATAAACCATATAT [XGTACX_negctrl_site458],8.78 ± 0.49
18,TTTTTTGCTTTCAACACACATACAATCTATATAATC [CACACA_site4125],8.65 ± 0.4
